Data taken from PubChem BioAssay AID1347073 (National Center for Advancing Translational Sciences (NCATS), 2019).
Screen size: about 45,000 compounds; about 200 (0.44%) were called active. Roughly 7% stayed inconclusive and do not appear here. Calls follow the shape of the dose curve; as a rule, active = well fitted activation curve with a large enough effect; inconclusive = small, poorly fitted or top-dose-only effect; inactive = no such curve, though single readings can be large or run the other way. Some of the results follow.

Assay: qHTS of TDP-43 Inhibitors: NCGC Sytravon Library Screen; also: nearly all actives have a fitted effect of over 55% in size; as to growth rescue (activation): 0% is about no effect
Settings: yeast TDP-43 toxicity rescue, BacTiter-Glo growth, 24 h; series mostly up to 46.1 µM; growth rescue (activation): at the top concentration
Outline: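 TDP-43-expressing yeast, pregrown in raffinose, seeded at OD600 0.02 in galactose medium with compound for 24 hr at 30 deg C. Growth read by BacTiter-Glo luminescence, so rescue of toxicity appears as activation.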
Potency is read from the fitted curve at half-maximal effect.

SMILES | growth rescue (activation) | Potency
O=C(NCc1ccc(Cl)cc1)c1cc2ccccc2o1 | inactive: 12.7% | –
CC1(c2ccc3c(c2)OCCO3)NC(=O)N(CC(=O)Nc2ccccc2F)C1=O (configuration not stated) | inactive: -21.3% | –
Cn1nnnc1N=N/C(=N/Nc1ccccc1)c1ccccc1 | – | active: 6.31 µM
CCN(CC)C(=O)Cn1c(=O)n(CCCCCC(=O)NCc2ccccc2Cl)c(=O)c2sccc21 | inactive: -3.46% | –
O=C(Nc1ccc(N2CCOCC2)cc1)c1csc(COCCO)n1 | inactive: 7.94% | –
Cc1cc(O)cc2c1C(=O)/C(=C/c1ccco1)O2 | inactive: 30.5% | –
CCc1sc(C(=O)Nc2ccc3c(c2)OCO3)cc1C | inactive: 16.8% | –
CC(C)N(Cc1cc2ccccc2[nH]c1=O)C(=O)c1ccco1 | inactive: 9.44% | –
CCCCOc1ccc(C(=O)OCC(=O)N2CCCCCC2)cc1 | inactive: 26.2% | –
COCC1CCN(Cc2cn(-c3ccccc3F)nc2-c2cc(C)sc2C)CC1 | inactive: -12% | –
CC1(C2CC2)NC(=O)N(CC(=O)N2CCN(c3cccc(C(F)(F)F)c3)CC2)C1=O (configuration not stated) | inactive: 2.76% | –
COc1ccc(C(=O)Nc2cc(C(F)(F)F)ccc2-n2cncn2)cc1 | inactive: 16.5% | –
CCCCCC(=O)N1CCN(CCN=CC2=C(O)CC(c3ccc(OC)c(OC)c3)CC2=O)CC1 (configuration not stated) | inactive: 17.6% | –
COC(=O)c1ccccc1NC(=O)N1c2ccccc2Sc2ccccc21 | inactive: 13.2% | –
CC(C)OC(=O)c1cccc(C(=O)OCc2ccco2)n1 | inactive: 8.15% | –
CCOC(=O)Cc1csc(NC(=O)Cc2ccccc2[N+](=O)[O-])n1 | inactive: 9.83% | –
CCC(C)N(C(=O)COC(=O)C1C(C(=O)OC)=C(C)NC(C)=C1C(=O)OC)C1CCS(=O)(=O)C1 (configuration not stated) | inactive: 4.22% | –
Cc1ccc(OCC(=O)N2C(C)CCCC2C)c([N+](=O)[O-])n1 (configuration not stated) | inactive: 27.2% | –
Cc1ccc(NC(=O)C2(S(=O)(=O)c3ccc(Cl)cc3)CC2)c(Br)c1 | inactive: -5.16% | –
CN1c2ccccc2Oc2nnc(N3CCN(Cc4ccccc4)CC3)cc21 | inactive: -2.48% | –
CC(C)Nc1ncnc2c1ncn2[C@H]1CN(Cc2ccco2)C[C@@H](CO)O1 | inactive: 4.91% | –
COc1ccc2c(-c3ccccc3)cc(SCC(=O)NC(N)=O)nc2c1 | inactive: 7.07% | –
Cc1ccc(S(=O)(=O)N(C)C)cc1NC(=S)Nc1ccc2[nH]c(=O)[nH]c2c1 | inactive: -20.2% | –
COc1ccc(/C=C/C(=O)OCc2csc(-c3ccccc3)n2)cc1OC | inactive: 15.7% | –
Cc1ccc(S(=O)(=O)N(C)c2cc(S(N)(=O)=O)c(C)cc2C)cc1 | inactive: 5.17% | –
CCc1ccc(NC(=O)CN2C(=O)C(c3ccccc3)=NC23CCCCCC3)cc1 | inactive: 22.3% | –

SMILES | growth rescue (activation) | Potency
COc1ccc(-c2noc(CNC(=O)c3ccoc3C)n2)cc1 | inactive: 8.46% | –
CCN(CC(=O)Nc1ccc(NC(C)=O)cc1)C(=O)Cc1ccccc1F | inactive: -13.7% | –
COC(=O)CCCC(=O)NC(C)c1cnn(-c2ccccc2C)c1C (configuration not stated) | inactive: -0.763% | –
O=C(CCC(=O)Nc1ccc(F)cc1)N/N=C/c1ccc(O)cc1O | inactive: -3.75% | –
Cn1c(CN2CCCCC2)nc2cc(NS(=O)(=O)c3ccc(F)cc3)ccc21 | inactive: 0.339% | –
Cc1ccc(C(O)c2ncc(-c3cccc(C(F)(F)F)c3)[nH]2)c(C)c1 (configuration not stated) | inactive: 12.6% | –
Cc1ccc(NC(=O)C2CCCN(c3nnc(-n4c(C)ccc4C)s3)C2)cc1Cl (configuration not stated) | inactive: 4.75% | –
O=C(NCc1ccccc1)C(c1ccncc1)N(C(=O)c1ccccn1)c1ccccc1 (configuration not stated) | inactive: 4.19% | –
CC(=O)c1ccc(OCCCC(=O)NC2CCC(C)CC2)cc1 (configuration not stated) | inactive: 15% | –
CCn1cc(C(=O)O)c(=O)c2cc(F)c(N3CCN(C(=S)NC(=O)c4c(OC)cccc4OC)CC3)cc21 | inactive: -6.12% | –
Cc1cnc(CNC(=O)c2csc([C@H]3C[C@H](O)[C@@H](CO)O3)n2)cn1 | inactive: 14.4% | –
O=C(CCc1ccccc1)Nc1cc(NC(=O)CCc2ccccc2)cc(C(=O)O)c1 | inactive: 5.23% | –
O=C(c1ccco1)N1CCN(CCCCOc2cccc3ccccc23)CC1 | inactive: 6.78% | –
Cc1nn(-c2ccccc2)c(N2CCCC2)c1/C=N/NC(=S)Nc1ccccc1F | inactive: 3.1% | –
Cn1cc(-c2csc(C(C)(O)c3cccnc3)n2)cn1 (configuration not stated) | inactive: 14.1% | –
COc1ccccc1OCC(O)Cn1nc(C)cc1C (configuration not stated) | inactive: 1.51% | –
Cc1c(CCC(=O)O)c(=O)oc2cc3occ(C(C)(C)C)c3cc12 | inactive: -12.5% | –
Cc1ccc(C(=O)N/C(=C\c2sccc2C)C(=O)NCc2ccco2)cc1 | inactive: 12% | –
O=C(O)c1ccc(/C=C2\CCCc3c2nc2ccccc2c3C(=O)O)cc1 | inactive: 0.849% | –
CCc1ccc(N(C(=O)c2snc(C(N)=O)c2N)C(C(=O)NCC2CCCO2)c2cccs2)cc1 (configuration not stated) | inactive: 10.1% | –
CCN(CC)C(=O)CSc1nc(O)c(Cc2ccccc2)c(=O)n1-c1ccccc1C | inactive: 4.18% | –
COc1ccc(C(CC(=O)O)N2C(=O)CCC2=O)cc1 (configuration not stated) | inactive: -2.92% | –
CCc1nc2ccc(C(=O)NCc3ccccc3)cc2nc1CC | inactive: 18.7% | –
CCc1nc2ccc(C(=O)NCCN3CCOCC3)cn2c1N(C=O)Cc1ccc(OC)cc1 | inactive: -10.5% | –
O=C(Cc1csc2ccccc12)NCc1ccccc1F | inactive: 13.6% | –
CS(=O)(=O)c1ccc(C(=O)N2CC(=O)Nc3ccccc32)cc1 | inactive: 0.0667% | –
